The list shows a part of the results. At the low end of the ranking the order means little.

The target of this test is SIX1-Q177R homeodomain (UniProt Q15475). Description: universal protein binding microarray. The following applies: Universal all-10-mer PBM (8x60K, AMADID 030236), 300 nM GST-tagged protein, Alexa Fluor 488 anti-GST; buffer, salt, pH and temperature not stated; high values mean tight binding; most listed sequences are background and not binding sites; double strand, one strand shown.
Consider AAACCGTT, for which the binding signal stood at 0.0154 E-score.

Regarding ATCGTAAC, the binding signal is -0.0138 E-score. The figure for CAATGCCC is -0.0431 E-score; for CCAGCAAC it is -0.118 E-score; for AGCAACAA it is -0.145 E-score. Then CTCTTTTC, with -0.0969 E-score; and CCCTAGCG, with -0.187 E-score.

Turning to ATCCGGCG, the binding signal was 0.0867 E-score. Then ACGATCCT, with 0.181 E-score; and AACTCTTG, with -0.0461 E-score; and CAAAATTA, with 0.00404 E-score. As to ATGCGTTC, the binding signal is -0.0126 E-score. Then GCCTAGAC, with -0.0861 E-score; and ATCCTTTG, with 0.0224 E-score. Take GCATAAAA: the binding signal was determined as 0.00893 E-score. Then CTATCGAC, with 0.0392 E-score. The figure for CCAAAGAA is -0.229 E-score; for AAATGCAC it is -0.0219 E-score. Turning to CCGCAGAC, the binding signal was 0.092 E-score. In the case of ATAGTTCG, the binding signal was -0.0169 E-score. Take AAGAATGA: the binding signal was -0.167 E-score.

For the sequence CTGATGCC, the binding signal is -0.0679 E-score. With ACATTACT, the binding signal was -0.123 E-score. In the case of CATACTAC, the binding signal was 0.14 E-score. For the sequence AGCCTGCA, the binding signal was -0.03 E-score. Turning to ACGGCCGT, the binding signal was found to be 0.138 E-score. Consider GGTACACA, for which the binding signal is 0.322 E-score. The figure for AGCTCATG is -0.141 E-score. CATGCCAA: the binding signal was -0.195 E-score. For ACGGTCAT, the binding signal was -0.16 E-score. The figure for GCACGTCC is -0.061 E-score; for GAAATGGA it is -0.112 E-score.

Take GTTATATA: the binding signal is -0.0153 E-score. Then AAGCGCCT, with 0.0104 E-score; and AATTCGGA, with 0.0775 E-score; and ATTAAAAC, with 0.158 E-score. Then AAAGGACA, with 0.147 E-score; and GTGGAATA, with 0.0558 E-score. Then GGCGAGGA, with 0.174 E-score; and GAACGGGA, with -0.185 E-score; and CGGAGGTC, with -0.126 E-score.

For ATGTACAT, the binding signal was -0.317 E-score. Then CCTCGGAC, with 0.0457 E-score; and CGGAGCGA, with -0.315 E-score. In the case of ATGAGACA, the binding signal was found to be 0.159 E-score. As for CAGTGCAC, the binding signal amounted to 0.183 E-score.

As to CTCTCGAC, the binding signal amounted to 0.125 E-score.

In the case of CCCTGGCG, the binding signal was 0.0314 E-score. The figure for AACCCGAG is 0.127 E-score; for CACATCTC it is -0.173 E-score; for AGTCTGAA it is -0.321 E-score. The figure for AAAGGCAG is -0.096 E-score; for CGTTTCAC it is -0.00579 E-score. For CGCAACCA, the binding signal is 0.0884 E-score. The figure for CACCCTCC is 0.297 E-score; for CCTATCTC it is -0.0145 E-score; for AGTGCGAG it is -0.12 E-score.

With AGCGTGTC, the binding signal came out at 0.393 E-score. The figure for AACTCTTC is -0.0831 E-score; for AGTCGTAT it is -0.0908 E-score. Turning to CCAGCTGC, the binding signal is -0.0249 E-score. The figure for CACATCTA is -0.0476 E-score. The figure for AGCAGTGC is -0.0593 E-score. Then ACAAGACC, with -0.2 E-score; and AATTAGCC, with -0.128 E-score; and AAAAGGAA, with -0.218 E-score. Consider AAGTAATA, for which the binding signal is -0.214 E-score.

Take ATGTCCCC: the binding signal is -0.192 E-score. Then GCATTCAA, with -0.067 E-score; and ATAGGCGC, with -0.161 E-score.

In the case of GACGTAGA, the binding signal is -0.0861 E-score.

CCAACTGG: the binding signal turned out to be 0.00876 E-score. GAGATACC: the binding signal was determined as 0.225 E-score. Then AAAGCCTC, with -0.286 E-score. Take GACCCTTA: the binding signal is 0.0827 E-score. The figure for AGTAGGAT is 0.0282 E-score. In the case of AGGAAACC, the binding signal was -0.122 E-score.

Take CACAGTCG: the binding signal was -0.0545 E-score. The figure for GACCATCC is -0.0863 E-score; for AGTAAGAG it is -0.129 E-score. For the sequence ACAGTCCC, the binding signal was -0.147 E-score. Then ACCTCTCC, with -0.0488 E-score; and ACTAATTG, with -0.0211 E-score. The figure for GTCAATCA is -0.0124 E-score; for CCAAGTTC it is -0.088 E-score.

On to ATATTACG, for which the binding signal was -0.165 E-score. As for CCCCAATC, the binding signal came to 0.136 E-score. Then CCATCAGG, with -0.0544 E-score.

Consider AAGCGGAG, for which the binding signal was 0.102 E-score. The figure for ACGCGCTG is 0.0974 E-score; for AAAGCGTG it is 0.12 E-score; for ACATACTG it is -0.0361 E-score. Then GAGGATAC, with 0.235 E-score. With GTGCGTAA, the binding signal amounted to 0.0718 E-score. The figure for AAGGATAC is 0.275 E-score; for ATACACGC it is 0.396 E-score. Consider AAACTGCA, for which the binding signal is -0.149 E-score. On to AGTACTGC, for which the binding signal was -0.153 E-score. Turning to CAGAATAG, the binding signal turned out to be 0.0233 E-score. Consider GTAGAATA, for which the binding signal was 0.148 E-score. Then CACGGGAC, with 0.163 E-score. The figure for GAACGGCA is -0.252 E-score; for AGTATTAG it is -0.0696 E-score; for CAAGTTAA it is -0.124 E-score. Then AGGGAGAT, with -0.149 E-score; and AAGGCACC, with 0.0565 E-score; and TGTGAGAA, with -0.0108 E-score. On to AGCAAAGG, for which the binding signal amounted to 0.0309 E-score. For CCGATTAG, the binding signal stood at 0.0257 E-score. On to CCTCGTTA, for which the binding signal was 0.0546 E-score. For CCCTGTCC, the binding signal worked out at 0.152 E-score. Then GTTGTACA, with 0.223 E-score; and GGTGGGCA, with 0.0958 E-score; and CGTATCTC, with 0.0589 E-score.

With ATGCTATG, the binding signal was -0.268 E-score. Then GGGCGACA, with 0.156 E-score; and CCGGGCCA, with -0.0427 E-score; and GATTAACC, with -0.128 E-score. Then ACAGCTAT, with -0.131 E-score. On to AAGAGGAG, for which the binding signal is -0.0714 E-score. Then CCATGGGC, with 0.0355 E-score; and ATTATGTG, with -0.0345 E-score; and CCCCGTTA, with -0.00978 E-score. Consider CCGCAGAA, for which the binding signal is -0.216 E-score.

As for CGGATCCC, the binding signal came out at 0.235 E-score. With GCCCATTA, the binding signal was -0.0208 E-score. With GGAGACTA, the binding signal was -0.163 E-score. Regarding ATAGATTC, the binding signal was -0.213 E-score. Then ATTTGGGA, with -0.171 E-score; and CAGGCTGC, with 0.0258 E-score.

In the case of CCGTCGGC, the binding signal was -0.032 E-score. For the sequence AGGACTCC, the binding signal came to 0.0679 E-score.

With ATCCAGGA, the binding signal was -0.0748 E-score. ACCATATA: the binding signal was -0.0544 E-score. Then ATGGGTCG, with 0.0821 E-score; and AGGTAGCA, with -0.185 E-score; and CTGATCTC, with -0.11 E-score. The figure for AAAGCTTC is -0.323 E-score; for GCCCCACA it is 0.0253 E-score. Turning to AGATGCCC, the binding signal was -0.218 E-score. The figure for TCGCAAGA is 0.00384 E-score; for CCTGGCCG it is -0.122 E-score; for ATCATGAA it is -0.208 E-score. Then GGCCCGTA, with -0.0271 E-score; and GAACTCTC, with -0.232 E-score. Turning to ACCAGCTC, the binding signal was 0.097 E-score. The figure for CCATCACC is 0.15 E-score; for CAACCACA it is -0.0501 E-score. On to CGCGTGGC, for which the binding signal was -0.216 E-score. Then GAGCTGGC, with -0.179 E-score; and ACACCGAT, with 0.473 E-score. Then AGAGATGA, with -0.235 E-score; and ATCACTCA, with -0.037 E-score.

Take AAGCTATG: the binding signal is -0.167 E-score. Then AAAGCCTA, with -0.196 E-score. The figure for CGATGAGA is -0.0851 E-score; for GACGCTGC it is -0.0608 E-score; for CTTCTTCA it is -0.116 E-score. In the case of AGTTAGGA, the binding signal turned out to be 0.153 E-score. Then ACCCGAAA, with -0.0387 E-score. The figure for CGTCCAGC is -0.202 E-score; for CCGGTTCC it is -0.0668 E-score.

With CTCGTTGA, the binding signal is -0.00205 E-score. For the sequence CTAATAGC, the binding signal was -0.178 E-score. Then ACTGATAA, with 0.0964 E-score; and TCGCGCCA, with -0.0389 E-score. The figure for ACTTTTAC is -0.0389 E-score. AGCATACG: the binding signal was -0.0851 E-score.

On to ATACACAA, for which the binding signal was determined as 0.0649 E-score. On to ATCAGAAT, for which the binding signal was -0.0732 E-score. The figure for ACTATACC is 0.0917 E-score; for AAAACACC it is 0.437 E-score.

The values above are taken from publication PMC10668032.
